Measured values from PubChem BioAssay (Tox21).
“And” between values parts separate entries of the source, which are not always exact repeats. Equal values may be shown once. The inconclusive results got no clear call from the source; some entries with a clear call stand among them for comparison. Potencies beside an inconclusive call are fits to weak or partial responses and may not hold up. The source holds several records for some structures; these can differ, active in one and inactive in another. The source made the active and inactive calls. The call rests on the fitted dose curve; in most records, active means well fitted inhibition curve with a large enough effect in the repeat runs; inconclusive means weak or mixed curves, or effect the other way; inactive means no such curve, though single readings can be large or run the other way.

assay: qHTS assay to identify small molecule antagonists of the retinoic acid receptor (RAR) signaling pathway (AID 1159552; further: nearly all actives have a fitted effect of over 50% in size); conditions: C3RL4 RARE luciferase reporter, retinol-stimulated, 6 h; series mostly up to 92.4 µM
Description: National Center for Advancing Translational Sciences [NCATS]
NIH Chemical Genomics Center [NCGC]
U.S. Environmental Protection Agency [EPA]
National Institutes of Environmental Health Sciences [NIEHS]
National Toxicology Program [NTP]
U.S. Food and Drug Administration [FDA]
All-trans Retinoic acid (atRA) is the potent natural metabolite of retinol and plays an important role in normal embryonic development and maintenance of cellular phenotype in adult animals. atRA is the activating ligand for the retinoic acid receptors (RARs) which form heterodimers with retinoid X receptors (RXRs) on the retinoic acid response element (RARE). Through activation of the RAR/RXRs nuclear receptors, atRA regulates the transcription of a large number of protein-coding genes and regulatory RNAs. Intracellular levels of atRA are controlled by the retinol signaling pathway (RSP) that regulates the biosynthesis and catabolism of atRA to maintain physiological levels. Chemicals that interfere with the RSP can cause abnormal intracellular levels of atRA and therefore are potential developmental toxicants. To assess compounds for the potential adverse effect on embryonic development through interfering with retinol signaling, a cell-based RARE luciferase reporter gene assay was used. C3RL4 cell line (OARSA/CFSAN/FDA, Laurel, MD) was used to screen Tox21 10K compound library for identifying inhibitors of the RSP.
Tox21 Assay Protocol Summary:
C3RL4 cells were seeded at 1,000/well in 4 uL of assay medium into white solid 1,536-well tissue culture plates (Greiner Bio-One North America Inc. Monroe, NC) using a Multidrop Combi (Thermo Scientific, Waltham, MA) dispenser. After incubation at 37 C and 5% CO2 for an overnight, 23 nL of compounds dissolved in DMSO, positive control or DMSO only were transferred by a Pintool station (Kalypsys, San Diego, CA). One ul of 1 uM (final concentration) of Retinol was added right after the compound addition by using a Flying Reagent Dispenser (FRD) (Aurora Discovery, San Diego, CA). After 6 hr incubation at 37 C and 5% CO2, 5 uL of Amplite Luciferase reagent (AAT Bioquest Inc. Sunnyvale, CA) was added to each assay plate using an FRD. Luminescence was quantified on a ViewLux plate reader (PerkinElmer, Waltham, MA) after 30 min incubation at room temperature.
Potency means the concentration at half of the fitted maximal effect; tags describe the fitted curve by direction and shape.

Compound	Potency
CC(O)Cn1cnc2c1c(=O)n(C)c(=O)n2C (stereo not given)	inconclusive: 0.0007 µM [inhibitor]
COCCOC	active: 6.54 µM
NC(=O)c1cccc([N+](=O)[O-])c1	inactive
O=C1c2ccccc2C(=O)c2c(O)c(O)cc(O)c21	inconclusive: 10.9 µM [inhibitor, partial curve]
CC(C)OC(=O)c1cc2c(OCC(O)CNC(C)(C)C)cccc2[nH]1 (stereo not given)	inactive
CCCCCCCC/C=C\CCCCCCCC(=O)O	inactive and inconclusive: 1.72 µM [inhibitor, full curve, poor fit]
CC[C@H]1OC(=O)[C@H](C)[C@@H](O[C@H]2C[C@@](C)(OC)[C@@H](O)[C@H](C)O2)[C@H](C)[C@@H](O[C@@H]2O[C@H](C)C[C@H](N(C)C)[C@H]2O)[C@](C)(O)C[C@@H](C)CN(C)[C@H](C)[C@@H](O)[C@]1(C)O	inconclusive: 28.7 µM [inhibitor, partial curve]
O=C(N[C@@H](c1ccccc1)[C@@H]1CCCCN1)c1cccc(C(F)(F)F)c1Cl	inconclusive: 61.1 µM [inhibitor, partial curve]
COc1ccc(-n2nc(C(F)F)cc2-c2ccc(S(C)=O)cc2)cc1 (stereo not given)	inconclusive: 68.6 µM [inhibitor, single point]
c1cc(N(CC2CO2)CC2CO2)ccc1Cc1ccc(N(CC2CO2)CC2CO2)cc1 (stereo not given)	inactive
Nc1ccc(NCCO)c([N+](=O)[O-])c1	inconclusive: 61.1 µM [inhibitor, partial curve, poor fit]
Cc1cc(C(C#N)c2ccc(Cl)cc2)c(Cl)cc1NC(=O)c1cc(I)cc(I)c1O (stereo not given)	inconclusive: 29.8 µM [inhibitor, partial curve]
CCc1ccc(C)cc1	inactive
Oc1c(Cl)cc(Cl)c(Cl)c1Cl	inconclusive: 42.4 µM [inhibitor, partial curve]
O=S(=O)(O)CO	inconclusive: 38 µM [inhibitor, partial curve]
CC1=CC(=O)CC(C)(C)C1	active: 4.99 µM
Brc1cc(-c2ccc(Br)c(Br)c2Br)cc(Br)c1Br	inconclusive: 5.36 µM [inhibitor, partial curve, poor fit]
O=C1[C@H]2CCCC[C@H]2C(=O)N1CCCCN1CCN(c2nsc3ccccc23)CC1	inactive
C1OCOCO1	inactive
CCC(C)(CCC(C)C)C(=O)[O][Sn]([CH3])([CH3])[O]C(=O)C(C)(CC)CCC(C)C (stereo not given)	inconclusive: 30.6 µM [inhibitor, partial curve]

Compound	Potency
CC1C2CC(CC2C2CCCC(O)C2)C1(C)C (stereo not given)	inconclusive: 54.5 µM [inhibitor, partial curve]
SCCc1cnccn1	inconclusive: 61.1 µM [inhibitor]
CC(=O)Oc1cc2c(s1)CCN(C(C(=O)C1CC1)c1ccccc1F)C2 (stereo not given)	inconclusive: 29.8 µM [inhibitor, partial curve, poor fit]
CC(C)=CCC1=C(O)c2ccccc2C(=O)C1=O	inactive
COc1cc(NCc2ccc3nc(N)nc(N)c3c2C)cc(OC)c1OC	inconclusive: 1.33 µM [inhibitor, partial curve, poor fit]
C=C(C)C(=O)OCCCCCCCCCC	inconclusive: 69.1 µM [inhibitor, single point]
CC(C)COCC(CN(Cc1ccccc1)c1ccccc1)N1CCCC1 (stereo not given)	inconclusive: 10.6 µM [inhibitor, full curve]
CC(c1cc(C(C)(C)C)cc(C(C)(C)C)c1O)c1cc(C(C)(C)C)cc(C(C)(C)C)c1O	inconclusive: 10.9 µM [inhibitor, partial curve]
Cc1ccc(S(=O)(=O)NC2CCCCC2)cc1	inconclusive: 68.1 µM [inhibitor, single point]
CO[C@H]1C=CO[C@@]2(C)Oc3c(C)c(O)c4c(O)c(c5c(c4c3C2=O)=NC2(CCN(CC(C)C)CC2)N=5)NC(=O)/C(C)=C\C=C/[C@H](C)[C@H](O)[C@@H](C)[C@@H](O)[C@@H](C)[C@H](OC(C)=O)[C@@H]1C	inconclusive: 26.7 µM [inhibitor, partial curve]
CCCCCCCC/C=C\CCCCCCCC(=O)OCCO	inconclusive: 11.4 µM [inhibitor, partial curve, poor fit]
CN1CCCCC1CCN1c2ccccc2Sc2ccc(S(C)=O)cc21 (stereo not given)	inconclusive: 33.5 µM [inhibitor]
Cc1ccc([N+](=O)[O-])c(C)c1	active: 6.11 µM
Cc1ccc(C(=O)Oc2ccc(C(O)CNC(C)(C)C)cc2OC(=O)c2ccc(C)cc2)cc1 (stereo not given)	inconclusive: 29.8 µM [inhibitor]
CCCCCC(C)OC(=O)COc1ccc(Cl)c2cccnc12 (stereo not given)	inactive
Cn1sccc1=O	inconclusive: 68.6 µM [inhibitor, single point]
Cc1ccc([N+](=O)[O-])cc1N	inconclusive: 17.2 µM [inhibitor, partial curve, poor fit]
CCCCOC(=O)CCS	inconclusive: 27.3 µM [inhibitor, partial curve]
CCCCCc1ccc(Cl)cc1	inactive
NC(=O)/N=N/C(N)=O	inconclusive: 30.7 µM [inhibitor, full curve]
